# Measured values published in the RNAGym collection of RNA variant scans (doi:10.7554/elife.90254).
# Read counts are not given, so values of variants with three or more changes are uncertain.
# B1: OR4K15 (parent)
# chain: GUUAACGGUCAUAGGCCAUGGAAACUAGGAGCACCAUUUCGCUGCCAGUGAAGAAAUGAACAAAGAAAAUCUGGGCCAGGCAGGCAUCAAAAGAAAUAGUCUUGCGCUCAACCAGAAAGUCUGUAAUCAUUUUAAGGGUA
# Variants of: B1
# Experiment: self-cleavage, relative activity (ratio to wild type); higher = more cleavage; in vitro, sequencing; the parent is a self-cleaving ribozyme
row,Variant,self-cleavage
1,A24G U39A C71U,0.68
2,U9C A22G U87C A92U,0.83
3,U43G A66U C113U,0.07
4,A36G A63G A94G A110G,0.19
5,A13G A24G C35U A59G A66G,0.6
6,A36U A111U A117C,0.08
7,U9C A54G U97C,1.33
8,A82G A116G A135G,0.22
9,U2C A64G U72A A126G U139G,0.15
10,A30U U87A U130C,1.28
11,U49C A69G A92G U102C,1.66
12,C40U U57C U70C A89U,0.4
13,A47U U87C A95G,1.15
14,C6U U39C U132C,1.55
15,U9A A22G U38C A82G A116G A126G,0.09
16,A30U U37C A55G,1.01
17,A51U A78G U108C U127C,0.01
18,A60G A63G A140G,1.54
19,A69G G83A C107U U124C,0.01
20,A78U A86U U127C,0.27
21,U49C A82G A86G U97C,0.11

row,Variant,self-cleavage
1,C17A A54U A60G,0.49
2,A67G U102C A140G,1.8
3,A27G C105A A111G A135G,0
4,U9C A11G A30U A54U A67G C128U,1.45
5,U38A A94G U103A A114C U122C,0.04
6,A36U A47U U87C U124C,0.51
7,G99A A110G A111G,0.03
8,U3C U39C G41U A54G U97C U102G,0.22
9,A30G A63G A90C U127C,0.29
10,U9C C32U G84U,0.75
11,U57C A66G U100C,1.53
12,U19C U43A A140G,1.55
13,A33U U70C A94G U108C A110G C128U,0
14,A5G A24G A60G U127C,0.55
15,A5C U37C A114U,0.25
16,U57G A98G A118G,0.15
17,U26C A54G A62U,0.92
18,A18U U38C A68G A82G A92G U100C,1.79
19,A63U U108C A111G,0
20,A33U A51G U108C U131C,0.01
21,U57C U97C U100C,1.64

row,Variant,self-cleavage
1,G79A U100C U103A A140C,0.04
2,U19G U43C U49A,0.78
3,A27G A36G U49C A90G A111G U122G,0.01
4,A5U A52G A98G U102C,1.52
5,A55G A67G A89G A114G,0.32
6,A59G A117G A126C A140G,1.15
7,A5U A36G A56G A64G,1.56
8,A33C A56G A59G A98C,1.13
9,A52G A64G U100C A129G,2.73
10,A51U U57A G74U A98G,0.06
11,A30G A118G A126G,0.35
12,A54G U87A U132A,0.22
13,A11G A82C A90G,0.17
14,A30G A68G U132C,1.51
15,A13G U19C A66G A94G,0.57
16,C46U A62U U72C U108C,0.01
17,U43A A78G U87C G119A,0.07
18,U2C A30G U43C A64G U70C,0.34
19,A66G A96U U108C,0.02
20,U3C A36U U43C A55G A64U C76U,0.1
21,C40U A66G A95G,1.9

row,Variant,self-cleavage
1,A54G A111G U122C,0
2,U37C U43A A47G A78U U108G,0.02
3,A56G A89G A90G A92G U100C,1.36
4,G44A U57C U87C U122C,0.42
5,A91G A111U U122G,0.05
6,A68U U87C A89G U102C,2.65
7,A24G A33G U49C A90G U100A,0.24
8,A5G A18G A36U A92G,0.26
9,A11U A22G A66C A86G A117G,1.12
10,G28A A98G U122C,0.04
11,A51G A91G A117C,0.93
12,A89G A114G U130A,0.23
13,G50A A51C A55G U87C,1.09
14,A22G A63C A140G,1.73
15,A54G A96G A110U,1.08
16,A11U A55G A91G,1.4
17,G50U A62U A134G,1.56
18,A114C A116G U120C,0.02
19,A23G U70C U108C U120A,0.05
20,A36G A54G A92U,1.25
21,A51G A67G G83A,1.77
